# Reference: paper PMC6919601, “Identification of Plasmodium dipeptidyl aminopeptidase allosteric inhibitors by high throughput screening” (PLoS ONE, 2019)
# About 230 (0.21%) of roughly 110,000 compounds showed an effect of 50% or more. The list shows a part of the results.
# Target: DPAP1 (Plasmodium falciparum, UniProt Q8IIJ9)
# Assay: primary screen, percent inhibition; read by cleavage of a fluorogenic dipeptide substrate; higher = more effect of the substance
# Set-up: species or system P. falciparum D10 trophozoite lysates; single well
# 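Further: 30 min substrate incubation versus DMSO and 10 µM JCP410 controls.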
# DPAP1, sequence (Q8IIJ9 whole entry, looked up): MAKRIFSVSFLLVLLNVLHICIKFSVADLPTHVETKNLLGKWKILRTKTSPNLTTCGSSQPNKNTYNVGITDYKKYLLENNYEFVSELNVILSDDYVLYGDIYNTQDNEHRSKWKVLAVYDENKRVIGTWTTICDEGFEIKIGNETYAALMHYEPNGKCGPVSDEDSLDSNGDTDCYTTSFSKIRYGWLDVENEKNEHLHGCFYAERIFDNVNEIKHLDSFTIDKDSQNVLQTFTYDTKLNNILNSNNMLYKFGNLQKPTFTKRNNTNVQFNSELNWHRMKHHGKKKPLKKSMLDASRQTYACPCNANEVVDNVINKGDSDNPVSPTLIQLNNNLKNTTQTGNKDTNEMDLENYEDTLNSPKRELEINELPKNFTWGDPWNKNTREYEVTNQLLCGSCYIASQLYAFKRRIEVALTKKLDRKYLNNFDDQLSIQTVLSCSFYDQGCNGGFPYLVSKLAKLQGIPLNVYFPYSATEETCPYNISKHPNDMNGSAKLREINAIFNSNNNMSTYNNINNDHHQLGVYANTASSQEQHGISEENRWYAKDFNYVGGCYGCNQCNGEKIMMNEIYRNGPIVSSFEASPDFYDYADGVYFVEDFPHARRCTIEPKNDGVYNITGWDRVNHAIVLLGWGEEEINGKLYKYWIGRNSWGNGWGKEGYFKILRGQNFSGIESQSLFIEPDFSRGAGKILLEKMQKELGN
row,SMILES,% Inhibition @ 10 uM [%]
1,CCCCCCNS(=O)(=O)c1ccccc1,2.51
2,CC/C(=N\CCCO)c1c(C(F)(F)F)nn(-c2nc3ccccc3s2)c1O,0.317
3,CC1CCN(C(=O)Cn2ncc3c2-c2ccccc2OC3)CC1,3.13
4,O=c1oc2ccc3ccccc3c2cc1S(=O)(=O)c1ccc(F)cc1,-3.1
5,COc1cc(C=O)ccc1Oc1nc2ccccc2n2nnnc12,3.5
6,CCOC(=O)CN(CC)C(C)c1ccccc1 (stereo not drawn),0.219
7,Fc1ccc(N2N=C(c3cccs3)CC2c2cccs2)c(F)c1 (stereo not drawn),-1.41
8,O=C(Nc1ccc2c(c1)OCCO2)c1ccc(CNS(=O)(=O)c2cccc(Cl)c2)cc1,2.01
9,Cc1ccc(C2C(C#N)=C(N)Oc3[nH]nc(-c4ccc(F)cc4)c32)o1 (stereo not drawn),-0.759
10,c1nc(SCCCCSc2nc[nH]n2)n[nH]1,-6.78
11,Cc1cc(OCC(=O)N2CCCc3ccccc32)ccc1Br,1.02
12,C=CCNC(=O)c1ccccc1NC(=O)c1ccc(Br)cc1,-5.81
13,Cc1nc2cc(C(=O)NCCc3ccccc3)ccc2n1-c1ccc(F)cc1F,-3.93
14,CC1CCN(C(=O)Nc2ccccc2C(F)(F)F)CC1,-1.38
15,COCCNC(=O)C1CCCN(c2nnc(C)c3c(C)n(-c4ccccc4)nc23)C1 (stereo not drawn),5.04
16,CCOc1ccc2ccccc2c1/C=C1\Sc2ccccc2C1=O,-2.39
17,COc1ccc(OC)c(CNc2ccc(Br)cc2)c1,-7.06
18,CCN(CC)CCNC(=O)Cn1ncc2c3cc(C)ccc3nc-2c1O,-1.97
19,COc1ccccc1C(=O)N1c2ccccc2C(Nc2ccccc2)CC1C (stereo not drawn),-8.6
20,CCOc1ccc(NC(=O)c2ccccc2OC)cc1,5.66
21,CCOC(=O)N1CCN(Cc2ccc(Br)cc2)CC1,-3.57
22,COc1ccc(CNc2ccc(F)cc2C)cc1,-0.0505

row,SMILES,% Inhibition @ 10 uM [%]
1,O=C(NCCO)/C(=C/c1ccc2c(c1)OCO2)NC(=O)c1ccc(Br)cc1,25.4
2,O=C(CCCc1nc(-c2ccccc2)no1)NCc1ccco1,-2.92
3,CCOC(=O)c1c(S(=O)(=O)NCc2ccccc2OCC)c(C)n(C)c1C,-2.46
4,C=CCOc1c(Cl)cc(CNc2ccc(OC)cc2)cc1OC,0.812
5,CC1CCCC(C)N1C(=O)/C=C/c1ccccc1 (stereo not drawn),4.66
6,CCOc1ccc(-c2[nH]nc3c2C(c2ccc(O)cc2)C(C#N)=C(N)O3)c(OCC)c1 (stereo not drawn),-0.759
7,Cc1ccnc(Sc2nc3c(c(=O)[nH]c(=O)n3C)n2CCCc2ccccc2)n1,4
8,CCOc1ccc(C(=O)Nc2cccc(C(C)=O)c2)cc1,-11
9,Fc1ccc(-c2noc3ncnc(NC4CCCc5ccccc54)c23)cc1 (stereo not drawn),3.76
10,CC1(C)Cc2c(sc3nc4n(-c5ccccc5)cnn4c(=O)c23)CO1,0.823
11,Cc1ccccc1NC(=O)NCc1ccccn1,-8.38
12,CC(C)NC(=O)Cn1cc(C(=O)C(C)(C)C)c2ccccc21,0.0289
13,CC(C)Nc1nn2nnnc2c2ccccc12,-4.32
14,COc1cc(-n2c(C)nc3cc(C(=O)NCc4ccco4)ccc32)cc(OC)c1OC,-0.458
15,CN1C2CCC1CC(O)(c1ccccc1)C2 (stereo not drawn),-1.77
16,Cc1ccccc1Cn1cnc2ccccc2c1=O,-8.88
17,COc1ccc2nc(N/C=C3\C(=O)N(C)C(=O)C(C#N)=C3C)sc2c1,-2.77
18,Cc1onc(-c2c(Cl)cccc2Cl)c1C(=O)Nc1ccc(O)cc1,1.05
19,COc1ccccc1OCC(=O)Nc1ccc(S(=O)(=O)Nc2cc(C)cc(C)c2)cc1,4.53
20,OC1CCCCC1CN(Cc1ccccc1)Cc1ccccc1 (stereo not drawn),0.986
21,Cc1ccc(C)c(N2C(=O)C3C4CCC(C4)C3C2=O)c1 (stereo not drawn),-4.84
22,Cc1nc2ccccc2c2c1C(=O)N(C(c1ccccc1)c1ccccc1)C2=O,2.64

row,SMILES,% Inhibition @ 10 uM [%]
1,OCC1CCCCN1C(=S)NCc1ccccc1 (stereo not drawn),-4.35
2,Cc1cc(C(=O)Nc2cccc(-c3nc4ccccc4o3)c2)ccc1[N+](=O)[O-],-2.51
3,CCC(C)Cn1c(COC)nc2ccccc21 (stereo not drawn),-0.551
4,O=S(=O)(Cc1ccc(F)cc1)c1oc(-c2cccs2)nc1S(=O)(=O)c1ccccc1,-1.22
5,CCc1ccccc1NC(=O)c1cc2ccccc2cc1O,-0.231
6,CC1CCN(S(=O)(=O)c2ccc3c(ccn3CCC(=O)N3CCN(c4ccccn4)CC3)c2)CC1,-2.18
7,CCc1c(-c2ccccc2)nc2ccccc2c1C(=O)NCCCOC,-0.519
8,CCc1ccccc1NC(=O)c1cccc([N+](=O)[O-])c1,-3.13
9,CCOc1ccc(NS(=O)(=O)c2ccc(NC(=O)c3ccc(OC)cc3)cc2)cc1,-11.4
10,CC(=O)C1=C(C)NC(c2ccc(Cl)cc2Cl)NC1c1ccc(Cl)cc1Cl (stereo not drawn),6.7
11,CCOC(=O)c1oc2ccc(OC)cc2c1NC(=O)CN1CCN(C)CC1,3.34
12,CCC1CCc2c(sc(NC(=O)c3ccco3)c2C(N)=O)C1 (stereo not drawn),0.206
13,COc1ccc(C(=O)N2CCCCCC2)cc1OC,4.73
14,COc1cc(CN2CCN(C(=O)COc3ccccc3)CC2)cc(OC)c1O,-7.23
15,C[C@@H](C[C@H](NC(=O)c1ccc(-c2ccccc2Cl)cc1)C(=O)NC1(C#N)CCS(=O)(=O)CC1)c1ccccc1,-1.82
16,COc1cccc(C2Oc3ccccc3C3CC(c4cccs4)=NN32)c1OCC(=O)O (stereo not drawn),23.4
17,CN(C)C1(c2cccs2)CS(=O)(=O)C1,-1.74
18,COc1cccc(-c2cc(C(=O)O)c3cc(Br)ccc3n2)c1,3.53
19,CCOc1ccc2oc(=O)cc(CN3CCN(C(=O)c4ccccc4Br)CC3)c2c1,3.88
20,CCc1ccccc1N(CC(=O)N1CCN(c2ccccc2OC)CC1)S(C)(=O)=O,-8
21,CCOc1ccccc1NC(=O)CN(c1ccc(C)cc1)S(=O)(=O)c1ccc(F)cc1,0.324
22,COC(Cc1ccccc1OC(C)C)C(=O)c1ccccc1 (stereo not drawn),-0.303
